# Test results taken from the RNAGym collection of RNA variant scans (doi:10.1073/pnas.2313332121).
# Variants at the floor of the assay are shown more often than the library holds them.
# B1: TPR 5TU (parent)
# chain: GGAUCUUCUCGAUCUAACAAAAAAGACAAAUCUGCCACAAAGCUUGAGAGCAUCUUCGGAUGCAGAGGCGGCAGCCUUCGGUGGCGCGAUAGCGCCAACGUUCUCAACUAUGACACGCAAAACGCGUGCUCCGUUGAAUGGAGUUUAUCAUG
# Variants of: B1
# Assay: polymerase ribozyme fitness, log enrichment relative to wild type (log ratio); higher = more active; in vitro selection for triplet polymerase activity
# How it was run: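 Each subunit of a heterodimeric triplet polymerase ribozyme was represented by a PCR-built, transcribed mutant library that underwent triplicate single-round in vitro selection with frozen incubation at −7 °C. Extended constructs were recovered by gel excision, streptavidin-bead capture and RT-PCR, and Illumina sequencing of input and output libraries kept genotypes with ≥10 input reads and ≥1 read per output. Fitness is the logarithm of genotype enrichment relative to wild-type enrichment, from inverse-variance-weighted replicate averages, with a logarithm base of 2.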
row,Variant,polymerase ribozyme fitness (log ratio)
1,U55G C87A C118U U130G,≤ -4.2
2,U56A C57U U61A C75A G88U A120U U139A G143C,≤ -4.2
3,C54U G86A,-1.18
4,U55G U61A G84C C85A C125U,≤ -4.2
5,C54U U55A C76A A91U C95A C103A C131G A138U,≤ -4.2
6,U55A G86U U145G,-1.41
7,U55G G80C C118U C125A G133C U144A U148A,≤ -4.2
8,U55A G124C C125U U148A,≤ -4.2
9,U55A C76U A121C,-0.181
10,U55A G62A G65C U78G C96A,≤ -4.2
11,U55G U61C G143A,≤ -4.2
12,U55A G70A C123G,-3.3
13,C54U U101G,-0.483
14,U55A G71A A73U,≤ -4.2
15,U55C G74C G140A,≤ -4.2
16,U56A C75A G92A C129G,≤ -4.2
17,U55A G74C C118U,≤ -4.2
18,U56A C85G C103G C108G,≤ -4.2
19,U55G G74U U90G C105U C118U,≤ -4.2
20,U55A G62C G81A,-3.98
21,U55A A97C,0.466

row,Variant,polymerase ribozyme fitness (log ratio)
1,U55A C75A C93G,≤ -4.2
2,U55A G80U G84C C93G G140U G143C,≤ -4.2
3,U55A C87G C149G,≤ -4.2
4,U55A A64C C85U U146G,≤ -4.2
5,U56A A60C G92U,-1.73
6,U55A U77C A120U U144G,≤ -4.2
7,U55A U77C A150C,≤ -4.2
8,U55G G70A C129G,≤ -4.2
9,U55A A66C U77A C87A,≤ -4.2
10,U55A G68A C76A A89C C93U C95A C108A A115U G117A U130G,≤ -4.2
11,C54U U56A G80A G83U C96A C105G C116G,≤ -4.2
12,U55G G81A U139C,≤ -4.2
13,U55A C72U G80C C105U C125G G128A G141U,≤ -4.2
14,U55G G81U G84C G86A G88U A121U U135G,≤ -4.2
15,U56A C79G U146C U148A,≤ -4.2
16,U55A C108G,≤ -4.2
17,C54U G84C C93U U144C,≤ -4.2
18,U55A A60G C76G C87G C96U U139A G140C,≤ -4.2
19,U56A A73U C85G A110U,≤ -4.2
20,U55A C87G G143U,≤ -4.2
21,U56A C85U A142U,-1.06

row,Variant,polymerase ribozyme fitness (log ratio)
1,C54U U82A C105U A119G,0.194
2,U55G C85A C93A A121U G126A U144A,≤ -4.2
3,U55A C69A C93G C105U G141U A147C,≤ -4.2
4,U55C G83C A115C C132U,-2.06
5,U55G G94A A98U C118A,-1.56
6,U55G A60G C69U A91G U144A,-2.3
7,U55A G88C G133U U145C,≤ -4.2
8,U55C U56A A98U U145A,-1.11
9,U55G U145A,-0.604
10,U55A G128A,-4.18
11,U55A U144A,-0.497
12,U55A C116G,0.374
13,U55A G143C,-2.99
14,U55A C87G C105A G136C,≤ -4.2
15,U55A U82C G92A C125G,≤ -4.2
16,U55A G94C,-0.443
17,U55A C75U,0.238
18,U55A C69A A97U U102C C149A,≤ -4.2
19,U55G G59C A142C,-3.24
20,U55A G68C A73U C85A A113U,≤ -4.2
21,U55A U56C G70A C79A G92U C149G,≤ -4.2

row,Variant,polymerase ribozyme fitness (log ratio)
1,U55A G68A C69A G83A C125A,≤ -4.2
2,U56A A64U C87G,≤ -4.2
3,U55A C87U U146A,-1.36
4,U55G C85U,-0.188
5,U55G A110G,-2.87
6,U56A C57G A113C,-1.82
7,U55G C114U,-2.17
8,U56A A89C U139C,≤ -4.2
9,U56A C76A C108A G140C A147U,≤ -4.2
10,C54U U82A G83A A98G,-1.89
11,U55G C72G C85A C105U G141U,≤ -4.2
12,U56A C87U C105A U111A C132U G141A,≤ -4.2
13,U55G U127A,-3.34
14,U55A A138G,-2.51
15,U55G G84A C99A A120G C131U,-2.08
16,U56A A91G,-3.41
17,U55G G86U,-0.476
18,U55G G86C,≤ -4.2
19,U56A C75G C87G,≤ -4.2
20,U55A A91U,≤ -4.2
21,U55A A91C,≤ -4.2
